The text below walks through data of publication PMC12820563.

Some of the results follow. The list includes weakly bound sequences.

This test concerns the target T1, MBP-FoxP3dN (UniProt Q99JB6).
T1 sequence: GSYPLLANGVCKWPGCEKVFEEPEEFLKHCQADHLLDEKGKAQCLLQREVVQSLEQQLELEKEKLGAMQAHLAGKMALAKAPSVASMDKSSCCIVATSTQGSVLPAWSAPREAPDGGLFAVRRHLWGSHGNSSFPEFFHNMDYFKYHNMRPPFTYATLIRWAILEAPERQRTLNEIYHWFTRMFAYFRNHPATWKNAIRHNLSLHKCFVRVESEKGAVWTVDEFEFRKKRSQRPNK
As to the kind of experiment: PD-seq (MBP pull-down with sequencing). To be noted: 20 mM Tris-HCl pH 7.5, 100 mM NaCl, 1.5 mM MgCl2, 0.4 uM protein, 0.1 uM dsDNA library, 30 min, room temperature, amylose pull-down; high values mean tight binding; double strand, one strand shown.
In the case of “GATGATTGTTCTCCCAGCTGATGAATTTCGCTGTTCGAGTAAACAAATTTTCCTAATCTTTCTGTTCAAGCGCCATCTAC”, the binding signal (RPM ratio (pull-down/input)) stood at 1.22. Under “GATGATTGTTCTCCCAGCTGATGAATTAATTAAATCGAGTAAACAAATTTTCCTAATCTTTCTGTTCAAGCGCCATCTAC” stands 0.248.

Consider “GATGATTGTTCTCCCAGCTGATGAATTTAAACTGTCGAGTAAACAAATTTTCCTAATCTTTCTGTTCAAGCGCCATCTAC”, for which the binding signal (RPM ratio (pull-down/input)) was determined as 0.299. Under “GATGATTGTTCTCCCAGCTGATGAATTAGGCTGTTCGAGTAAACAAATTTTCCTAATCTTTCTGTTCAAGCGCCATCTAC” stands 0.907; under “GATGATTGTTCTCCCAGCTGATGAATTCTAAAAATCGAGTAAACAAATTTTCCTAATCTTTCTGTTCAAGCGCCATCTAC”, 0.177; under “GATGATTGTTCTCCCAGCTGATGAATTCATGAGGTCGAGTAAACAAATTTTCCTAATCTTTCTGTTCAAGCGCCATCTAC”, 0.344. Turning to “GATGATTGTTCTCCCAGCTGATGAATTCTTTAGCTCGAGTAAACAAATTTTCCTAATCTTTCTGTTCAAGCGCCATCTAC”, the binding signal (RPM ratio (pull-down/input)) came to 0.211. Under “GATGATTGTTCTCCCAGCTGATGAATTCCTTGGATCGAGTAAACAAATTTTCCTAATCTTTCTGTTCAAGCGCCATCTAC” stands 0.188; under “GATGATTGTTCTCCCAGCTGATGAATTAAGGATGTCGAGTAAACAAATTTTCCTAATCTTTCTGTTCAAGCGCCATCTAC”, 0.361; under “GATGATTGTTCTCCCAGCTGATGAATTGGCCTGCTCGAGTAAACAAATTTTCCTAATCTTTCTGTTCAAGCGCCATCTAC”, 0.486.

With “GATGATTGTTCTCCCAGCTGATGAATTTCATTGATCGAGTAAACAAATTTTCCTAATCTTTCTGTTCAAGCGCCATCTAC”, the binding signal (RPM ratio (pull-down/input)) was 0.845. In the case of “GATGATTGTTCTCCCAGCTGATGAATTTACGCGATCGAGTAAACAAATTTTCCTAATCTTTCTGTTCAAGCGCCATCTAC” it was 0.631; in that of “GATGATTGTTCTCCCAGCTGATGAATTGACACTTTCGAGTAAACAAATTTTCCTAATCTTTCTGTTCAAGCGCCATCTAC”, 0.59. For the sequence “GATGATTGTTCTCCCAGCTGATGAATTTCATCTCTCGAGTAAACAAATTTTCCTAATCTTTCTGTTCAAGCGCCATCTAC”, the binding signal (RPM ratio (pull-down/input)) amounted to 0.632. Under “GATGATTGTTCTCCCAGCTGATGAATTAGATTGATCGAGTAAACAAATTTTCCTAATCTTTCTGTTCAAGCGCCATCTAC” stands 0.868; under “GATGATTGTTCTCCCAGCTGATGAATTACTTGGCTCGAGTAAACAAATTTTCCTAATCTTTCTGTTCAAGCGCCATCTAC”, 0.302; under “GATGATTGTTCTCCCAGCTGATGAATTATAGGACTCGAGTAAACAAATTTTCCTAATCTTTCTGTTCAAGCGCCATCTAC”, 0.33.

Regarding “GATGATTGTTCTCCCAGCTGATGAATTGCTGTATTCGAGTAAACAAATTTTCCTAATCTTTCTGTTCAAGCGCCATCTAC”, the binding signal (RPM ratio (pull-down/input)) was 1.86. Under “GATGATTGTTCTCCCAGCTGATGAATTGTCTTGATCGAGTAAACAAATTTTCCTAATCTTTCTGTTCAAGCGCCATCTAC” stands 0.422.

Turning to “GATGATTGTTCTCCCAGCTGATGAATTTCTGTGGTCGAGTAAACAAATTTTCCTAATCTTTCTGTTCAAGCGCCATCTAC”, the binding signal (RPM ratio (pull-down/input)) turned out to be 0.335.

Regarding “GATGATTGTTCTCCCAGCTGATGAATTATCCGCGTCGAGTAAACAAATTTTCCTAATCTTTCTGTTCAAGCGCCATCTAC”, the binding signal (RPM ratio (pull-down/input)) was determined as 0.471. As for “GATGATTGTTCTCCCAGCTGATGAATTGGTGTGTTCGAGTAAACAAATTTTCCTAATCTTTCTGTTCAAGCGCCATCTAC”, the binding signal (RPM ratio (pull-down/input)) was 2.08. In the case of “GATGATTGTTCTCCCAGCTGATGAATTCAAAAGGTCGAGTAAACAAATTTTCCTAATCTTTCTGTTCAAGCGCCATCTAC” it was 0.193; in that of “GATGATTGTTCTCCCAGCTGATGAATTAAGGCAGTCGAGTAAACAAATTTTCCTAATCTTTCTGTTCAAGCGCCATCTAC”, 0.549; in that of “GATGATTGTTCTCCCAGCTGATGAATTCCCCAAATCGAGTAAACAAATTTTCCTAATCTTTCTGTTCAAGCGCCATCTAC”, 0.173.

Turning to “GATGATTGTTCTCCCAGCTGATGAATTGGGTAACTCGAGTAAACAAATTTTCCTAATCTTTCTGTTCAAGCGCCATCTAC”, the binding signal (RPM ratio (pull-down/input)) was determined as 0.873. Turning to “GATGATTGTTCTCCCAGCTGATGAATTGAAGTTTTCGAGTAAACAAATTTTCCTAATCTTTCTGTTCAAGCGCCATCTAC”, the binding signal (RPM ratio (pull-down/input)) was 0.499. In the case of “GATGATTGTTCTCCCAGCTGATGAATTAGAAAGGTCGAGTAAACAAATTTTCCTAATCTTTCTGTTCAAGCGCCATCTAC” it was 0.164; in that of “GATGATTGTTCTCCCAGCTGATGAATTTGCTATCTCGAGTAAACAAATTTTCCTAATCTTTCTGTTCAAGCGCCATCTAC”, 4.84. Under “GATGATTGTTCTCCCAGCTGATGAATTAGTTAAGTCGAGTAAACAAATTTTCCTAATCTTTCTGTTCAAGCGCCATCTAC” stands 0.367; under “GATGATTGTTCTCCCAGCTGATGAATTTAGTCACTCGAGTAAACAAATTTTCCTAATCTTTCTGTTCAAGCGCCATCTAC”, 1.04. Under “GATGATTGTTCTCCCAGCTGATGAATTTGAGTACTCGAGTAAACAAATTTTCCTAATCTTTCTGTTCAAGCGCCATCTAC” stands 1.82. For the sequence “GATGATTGTTCTCCCAGCTGATGAATTAGGGGCGTCGAGTAAACAAATTTTCCTAATCTTTCTGTTCAAGCGCCATCTAC”, the binding signal (RPM ratio (pull-down/input)) amounted to 0.63. In the case of “GATGATTGTTCTCCCAGCTGATGAATTGTTCAAATCGAGTAAACAAATTTTCCTAATCTTTCTGTTCAAGCGCCATCTAC” it was 0.399; in that of “GATGATTGTTCTCCCAGCTGATGAATTTCCGGGTTCGAGTAAACAAATTTTCCTAATCTTTCTGTTCAAGCGCCATCTAC”, 0.307. In the case of “GATGATTGTTCTCCCAGCTGATGAATTTACCCCGTCGAGTAAACAAATTTTCCTAATCTTTCTGTTCAAGCGCCATCTAC” it was 0.311; in that of “GATGATTGTTCTCCCAGCTGATGAATTAATTCAATCGAGTAAACAAATTTTCCTAATCTTTCTGTTCAAGCGCCATCTAC”, 0.291; in that of “GATGATTGTTCTCCCAGCTGATGAATTGGACTCATCGAGTAAACAAATTTTCCTAATCTTTCTGTTCAAGCGCCATCTAC”, 0.407.

“GATGATTGTTCTCCCAGCTGATGAATTGGAACCATCGAGTAAACAAATTTTCCTAATCTTTCTGTTCAAGCGCCATCTAC”: the binding signal (RPM ratio (pull-down/input)) turned out to be 0.308. Under “GATGATTGTTCTCCCAGCTGATGAATTCATGGGTTCGAGTAAACAAATTTTCCTAATCTTTCTGTTCAAGCGCCATCTAC” stands 0.538.
